This is one part of the list.
T1: UNK ZnF1-3 (human, UniProt Q9C0B0 31-174)
T1 sequence: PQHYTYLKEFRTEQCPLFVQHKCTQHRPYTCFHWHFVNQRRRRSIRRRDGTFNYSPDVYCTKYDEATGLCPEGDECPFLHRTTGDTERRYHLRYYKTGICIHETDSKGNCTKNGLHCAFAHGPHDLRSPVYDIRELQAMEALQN

B1: chr12:21796937:21796938:-_ENSG00000111716_ENST00000350669|hu_mus|FALSE|FALSE (ssRNA)
RNA: GGGAGUUCUACAGUCCGACGAUCCACGAUGAUGGUGCAGUCAGGGCUGUACUUGACGAUCUGAGGAAUGAUGAACUUGAACACGUUGACAUUUCUCUGCACCAGGUUGAGCCGACUCUCCCCCUCCUGCUGGCGGACUCCUGCCAACAGAGGAUUGAGCAUCA
B2: 47614209_47621638_942_CDS_ENSG00000102893_ENST00000566044|human|control|control (ssRNA)
RNA: GGGAGUUCUACAGUCCGACGAUCAGUUUGCCUGUUGCGAUUGUGAGCAUCGAGAUCCACAAAUAUAACUGACCACGAACAGCCCUGGUUGCCAAAAAGGUUGAAUCCAUUAAUUGCUUCUAGAGCUGCUUUUGCUAAACCAACCAACAGAGGAUUGAGCAUCA
B3: 49672327_49672447_664_CDS_ENSG00000102935_ENST00000562871|human|control|control (ssRNA)
RNA: GGGAGUUCUACAGUCCGACGAUCUUUGUGGGCCUGCAUGUGGCUCUGCAGCGAGCUGGUGGAGGAGAAGCCGCGCUUGCACACAGUGCACUUGAAGGGCUUGCUGGAGCUGUGGGUCUUCAGGUGGAUCUUGAGGUGGUCGCUCAACAGAGGAUUGAGCAUCA
B4: chr4:140265382:140265383:+_ENSG00000164134_ENST00000296543|hu_mus|motif|central (ssRNA)
RNA: GGGAGUUCUACAGUCCGACGAUCUUCUCUAUAAAGACCUGCUUCCCGAAGAACUUGAUUCUGAUAUAAGAGGAGUUCACGGUAUUCAUAAUCCACUUUAUCAGGAGAUGUCUGCUGUGUUUUCCUAAACUCUUCUAAAAUUUUCAACAGAGGAUUGAGCAUCA
B5: chr17:8508246:8508247:-_ENSG00000133026_ENST00000269243|hu_mus|FALSE|FALSE (ssRNA)
RNA: GGGAGUUCUACAGUCCGACGAUCAUACAUUUCAAUAAUAUUCUCAGAGUAAAUUGGAAGGUUCUUGUAAGGAUUUAUCACCACACAGAAGAGUCCAGAGUAAGUAUAGAUAAGUCCUGAAUAGUAGCGGUCCUUCAAAUUAUGCAACAGAGGAUUGAGCAUCA
B6: 105924449_105924569_676_CDS_ENSG00000135966_ENST00000393359|human|control|control (ssRNA)
RNA: GGGAGUUCUACAGUCCGACGAUCGUUGACCAGGCUGAUGGAGUUGUCACACAGCACCAGCAGCCUGUUGAGUGCUGAGGCCGCACGCAGCUCGUUCACGGGCUUCUUGAAGCCCAAGUGUCUCUGCAGCUGUUUGGUGGCAGUCAACAGAGGAUUGAGCAUCA
B7: chr4:82449818:82449819:-_ENSMUSG00000028403_ENSMUST00000030110|mus_hu|FALSE|FALSE (ssRNA)
RNA: GGGAGUUCUACAGUCCGACGAUCUACAUUUCUAUGUUUUGUAAUAAAUUGGUAAUUUCAAAGUAACAGCUUUUCCAAUUCUAAGGAAUUACUCUGCCAAAAUAAGGUUUAAAAUAAAAUACAUAAAAUGGCUUAGUUUAUCCUCAACAGAGGAUUGAGCAUCA
B8: chr1:87369078:87369079:-_ENSG00000183291_ENST00000370554|hu_hu|motif|central (ssRNA)
RNA: GGGAGUUCUACAGUCCGACGAUCCAGGUUGAACUGUCCGAGAAGAUCACAAGAGCUGCAAAGCAAGUUGCUAGAAAAGCCGGACUCUCUGCAUGCCUCCGAUGAAAACUCUGCCCCAAAAGCAGACACCGCUUGAAGCACAGUCAACAGAGGAUUGAGCAUCA
B9: chr3:58389949:58389950:+_ENSMUSG00000075700_ENSMUST00000107924|mus_mus|FALSE|FALSE (ssRNA)
RNA: GGGAGUUCUACAGUCCGACGAUCCAGGAAGAAAACCAUCAUACAUGCAUAAACCUUAUUUUCUUGGCCCCACUGCCAGAUGCUAGGAGCUUGCAUGCCGAAAAAAGCAAAAGGAUCUUUGCCAACAAUUAUUAAGCCUAUUAACAACAGAGGAUUGAGCAUCA
B10: chr12:79978091:79978092:+_ENSMUSG00000021116_ENSMUST00000071230|mus_mus|FALSE|FALSE (ssRNA)
RNA: GGGAGUUCUACAGUCCGACGAUCGCUCUCCAGCUGCUCAUCCUUGGUAUAUUCUAAUACCUCAGCAACAUGGCGAAGAAUGCUAUAAACAGUUUUGGAUUUUGUGAAUUUGUCCUCACAUUUGAUUGCUUCCUCUGGAGAAACCAACAGAGGAUUGAGCAUCA
B11: chr19:37619525:37619526:+_ENSG00000197050_ENST00000337995|hu_mus|FALSE|FALSE (ssRNA)
RNA: GGGAGUUCUACAGUCCGACGAUCUUCCUUACAGUCCAAAGAUUUGCCACGGAUAUGAAUUCUCUGAUGUCGCAUUAGUUGAGACUCACGUGUAAAGGCCUUUUCACAUUCUUUACACUGAUACGGUUUCUCGCCAGUAUGAACCAACAGAGGAUUGAGCAUCA
B12: chr12:52885226:52885227:-_ENSMUSG00000035247_ENSMUST00000042052|mus_mus|motif|central (ssRNA)
RNA: GGGAGUUCUACAGUCCGACGAUCUUUGAAGACAUUUAUUCUUUCUACCAGUUGACUACAAUCUUGCUUCAUAUCCAAAUCGGUACGGUUGUUUAGAACAGUAAGAAGUGCCUGGACUAAACCACUACUACACAUUUCAUACGGCAACAGAGGAUUGAGCAUCA
B13: chr3:89559821:89559822:-_ENSMUSG00000027950_ENSMUST00000029562|mus_mus|FALSE|FALSE (ssRNA)
RNA: GGGAGUUCUACAGUCCGACGAUCCCCAGCACAGCCCUGCCUACCUUUAUUCCCACAGUGUAAAUGCUGGGAGCAGGUUCUAAGAUGGGCGCUGUUUGCCUGAUAUGUUCAACAGGAUACGGAAAGGAGCUGGACAAACUGUUCCAACAGAGGAUUGAGCAUCA
B14: chr7:88174460:88174461:+_ENSMUSG00000005621_ENSMUST00000107353|mus_mus|FALSE|FALSE (ssRNA)
RNA: GGGAGUUCUACAGUCCGACGAUCGCACCUGUAGCCCACUUUUCGGGCAUAGUGCAGGCAAUUCUCCUUUACGUGAGUCUGGAAGUAAGCAGAGCGACAGAGGACACCGCACUCCGGGCAGCAGUAGGGGGACUUGUGUGCAUGCAACAGAGGAUUGAGCAUCA

target: T1, UNK ZnF1-3; experiment: nsRBNS (natural sequence RNA bind-n-seq); RBNS binding buffer (assumed for nsRBNS): 25 mM Tris pH 7.5, 150 mM KCl, 3 mM MgCl2, 0.01% Triton X-100, 500 ug/ml BSA, 20 U/ml SUPERase-In, 4 C; UNK is unkempt and MSI1 is Musashi-1; names of the RNAs are library labels; protein concentration not given here; high values mean tight binding

| Binder | binding signal |
| --- | --- |
| B1 | 0.9 enrichment R |
| B2 | 1.22 enrichment R |
| B3 | 0.822 enrichment R |
| B4 | 1.3 enrichment R |
| B5 | 1.79 enrichment R |
| B6 | 0.399 enrichment R |
| B7 | 0.946 enrichment R |
| B8 | 0.86 enrichment R |
| B9 | 1.29 enrichment R |
| B10 | 0.548 enrichment R |
| B11 | 0.675 enrichment R |
| B12 | 0.791 enrichment R |
| B13 | 0.84 enrichment R |
| B14 | 1.86 enrichment R |

— paper PMC12136788
